The list shows a part of the results.
Key:
Experiment in all cases: glycan array binding signal (z-score within array); higher = stronger binding
Conditions in all cases: glycan notation: IUPAC condensed, linker removed
[1] = target: Neu5Ac(a2-3)Gal(b1-4)[Fuc(a1-3)]GlcNAc(b1-3)Gal
In short: (§1)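 Columns mapping to the same glycan were averaged after glycan names were converted to IUPAC-condensed notation. The data come from 3228 arrays in the Consortium for Functional Glycomics database, limited to those with an available protein sequence. Binding is reported as a within-array Z-score averaged across arrays of one protein sequence and across linkers.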

[2] = target: Neu5Ac(a2-3)Gal(b1-4)[Fuc(a1-3)]GlcNAc(b1-3)Gal(b1-4)GlcNAc
In short: as §1

[3] = target: Neu5Ac(a2-3)Gal(b1-4)[Fuc(a1-3)]GlcNAc(b1-3)Gal(b1-4)[Fuc(a1-3)]GlcNAc(b1-3)Gal(b1-4)[Fuc(a1-3)]GlcNAc
In short: as §1

[4] = target: Neu5Ac(a2-3)Gal(b1-4)[Fuc(a1-3)]GlcNAc(b1-3)GalNAc
In short: as §1

[5] = target: Neu5Ac(a2-3)Gal(b1-4)[Fuc(a1-3)]GlcNAc(b1-6)[Gal(b1-3)]GalNAc
In short: as §1

[6] = target: Neu5Ac(a2-3)Gal(b1-4)[Fuc(a1-3)]GlcNAc(b1-6)[Neu5Ac(a2-3)Gal(b1-3)]GalNAc
In short: as §1

[7] = target: Neu5Ac(a2-3)Gal(b1-4)[Fuc(a1-3)]GlcNAc6S
In short: as §1

[8] = target: Neu5Ac(a2-3)Gal6S(b1-4)GlcNAc
In short: as §1

[9] = target: Neu5Ac(a2-3)Gal6S(b1-4)[Fuc(a1-3)]GlcNAc
In short: as §1

[10] = target: Neu5Ac(a2-3)GalNAc
In short: as §1

[11] = target: Neu5Ac(a2-3)GalNAc(b1-4)GlcNAc
In short: as §1

[12] = target: Neu5Ac(a2-3)[GalNAc(b1-4)]Gal(b1-4)Glc
In short: as §1

[13] = target: Neu5Ac(a2-3)[GalNAc(b1-4)]Gal(b1-4)GlcNAc
In short: as §1

[14] = target: Neu5Ac(a2-3)[GalNAc(b1-4)]Gal(b1-4)GlcNAc(b1-3)GalNAc
In short: as §1

[15] = target: Neu5Ac(a2-3)[Neu5Ac(a2-6)]GalNAc
In short: as §1

[16] = target: Neu5Ac(a2-6)Gal
In short: as §1

[17] = target: Neu5Ac(a2-6)Gal(b1-3)GlcNAc(b1-3)[Gal(b1-4)GlcNAc(b1-6)]Gal(b1-4)Glc
In short: as §1

[18] = target: Neu5Ac(a2-6)Gal(b1-4)Glc
In short: as §1

[19] = target: Neu5Ac(a2-6)Gal(b1-4)GlcNAc
In short: as §1

[20] = target: Neu5Ac(a2-6)Gal(b1-4)GlcNAc(b1-2)Man
In short: as §1

[21] = target: Neu5Ac(a2-6)Gal(b1-4)GlcNAc(b1-2)Man(a1-3)Man(b1-4)GlcNAc(b1-4)GlcNAc
In short: as §1

[22] = target: Neu5Ac(a2-6)Gal(b1-4)GlcNAc(b1-2)Man(a1-3)[Gal(b1-4)GlcNAc(b1-2)Man(a1-6)]Man(b1-4)GlcNAc(b1-4)GlcNAc
In short: as §1

[23] = target: Neu5Ac(a2-6)Gal(b1-4)GlcNAc(b1-2)Man(a1-3)[GlcNAc(b1-2)Man(a1-6)]Man(b1-4)GlcNAc(b1-4)GlcNAc
In short: as §1

[24] = target: Neu5Ac(a2-6)Gal(b1-4)GlcNAc(b1-2)Man(a1-3)[GlcNAc(b1-2)Man(b1-4)GlcNAc(b1-2)Man(a1-6)]Man(b1-4)GlcNAc(b1-4)GlcNAc
In short: as §1

[25] = target: Neu5Ac(a2-6)Gal(b1-4)GlcNAc(b1-2)Man(a1-3)[GlcNAc(b1-4)][Neu5Ac(a2-6)Gal(b1-4)GlcNAc(b1-2)Man(a1-6)]Man(b1-4)GlcNAc(b1-4)GlcNAc
In short: as §1

[26] = target: Neu5Ac(a2-6)Gal(b1-4)GlcNAc(b1-2)Man(a1-3)[Man(a1-6)]Man(b1-4)GlcNAc(b1-4)GlcNAc
In short: as §1

[27] = target: Neu5Ac(a2-6)Gal(b1-4)GlcNAc(b1-2)Man(a1-3)[Neu5Ac(a2-3)Gal(b1-4)GlcNAc(b1-2)Man(a1-6)]Man(b1-4)GlcNAc(b1-4)GlcNAc
In short: as §1

[28] = target: Neu5Ac(a2-6)Gal(b1-4)GlcNAc(b1-2)Man(a1-3)[Neu5Ac(a2-6)Gal(b1-4)GlcNAc(b1-2)Man(a1-6)]Man(b1-4)GlcNAc(b1-4)GlcNAc
In short: as §1

[29] = target: Neu5Ac(a2-6)Gal(b1-4)GlcNAc(b1-2)Man(a1-3)[Neu5Ac(a2-6)Gal(b1-4)GlcNAc(b1-2)Man(a1-6)]Man(b1-4)GlcNAc(b1-4)[Fuc(a1-6)]GlcNAc
In short: as §1

[30] = target: Neu5Ac(a2-6)Gal(b1-4)GlcNAc(b1-2)Man(a1-6)Man(b1-4)GlcNAc(b1-4)GlcNAc
In short: as §1

B1: Siglec-F (Mus musculus), Q920G3 (protein)
chain: MRWAWLLPLLWAGCLATDGYSLSVTGSVTVQEGLCVFVACQVQYPNSKGPVFGYWFREGANIFSGSPVATNDPQRSVLKEAQGRFYLMGKENSHNCSLDIRDAQKIDTGTYFFRLDGSVKYSFQKSMLSVLVIALTEVPNIQVTSTLVSGNSTKLLCSVPWACEQGTPPIFSWMSSALTSLGHRTTLSSELNLTPRPQDNGTNLTCQVNLPGTGVTVERTQQLSVIYAPQKMTIRVSWGDDTGTKVLQSGASLQIQEGESLSLVCMADSNPPAVLSWERPTQKPFQLSTPAELQLPRAELEDQGKYICQAQNSQGAQTASVSLSIRSLLQLLGPSCSFEGQGLHCSCSSRAWPAPSLRWRLGEGVLEGNSSNGSFTVKSSSAGQWANSSLILSMEFSSNHRLSCEAWSDNRVQRATILLVSGPKVSQAGKSETSRGTVLGAIWGAGLMALLAVCLCLIFFTVKVLRKKSALKVAATKGNHLAKNPASTINSASITSSNIALGYPIQGHLNEPGSQTQKEQPPLATVPDTQKDEPELHYASLSFQGPMPPKPQNTEAMKSVYTEIKIHKC
Q: Which “glycan array binding signal (z-score)” value [1] does the source give for B1 here?
A: -0.088

Q: What about the “glycan array binding signal (z-score)” value [2] of the same binder?
A: -0.103

Q: What about the “glycan array binding signal (z-score)” value [3] of the same binder?
A: -0.109

Q: And the “glycan array binding signal (z-score)” value [4]?
A: -0.115

Q: And the “glycan array binding signal (z-score)” value [5]?
A: -0.034

Q: And the “glycan array binding signal (z-score)” value [6]?
A: 0.02

Q: And the “glycan array binding signal (z-score)” value [7]?
A: -0.025

Q: What about the “glycan array binding signal (z-score)” value [8] of the same binder?
A: 13.2

Q: And the “glycan array binding signal (z-score)” value [9]?
A: 12.9

Q: And the “glycan array binding signal (z-score)” value [10]?
A: -0.125

Q: And the “glycan array binding signal (z-score)” value [11]?
A: 0.292

Q: And the “glycan array binding signal (z-score)” value [12]?
A: -0.044

Q: And the “glycan array binding signal (z-score)” value [13]?
A: -0.065

Q: And the “glycan array binding signal (z-score)” value [14]?
A: 0.04

Q: And the “glycan array binding signal (z-score)” value [15]?
A: -0.1

Q: What about the “glycan array binding signal (z-score)” value [16] of the same binder?
A: -0.117

Q: And the “glycan array binding signal (z-score)” value [17]?
A: -0.111

Q: And the “glycan array binding signal (z-score)” value [18]?
A: -0.117

Q: And the “glycan array binding signal (z-score)” value [19]?
A: -0.114

Q: What about the “glycan array binding signal (z-score)” value [20] of the same binder?
A: -0.153

Q: What about the “glycan array binding signal (z-score)” value [21] of the same binder?
A: -0.11

Q: And the “glycan array binding signal (z-score)” value [22]?
A: -0.088

Q: What about the “glycan array binding signal (z-score)” value [23] of the same binder?
A: -0.099

Q: What about the “glycan array binding signal (z-score)” value [24] of the same binder?
A: 0.334

Q: What about the “glycan array binding signal (z-score)” value [25] of the same binder?
A: -0.149

Q: And the “glycan array binding signal (z-score)” value [26]?
A: -0.118

Q: What about the “glycan array binding signal (z-score)” value [27] of the same binder?
A: 0.793

Q: And the “glycan array binding signal (z-score)” value [28]?
A: -0.031

Q: And the “glycan array binding signal (z-score)” value [29]?
A: -0.128

Q: And the “glycan array binding signal (z-score)” value [30]?
A: -0.113

From the supplement of paper PMC8728848
